# The supplement of paper PMC8728848
# This is one part of the list.
# Assays:
# Test in all cases: glycan array binding signal (z-score within array); higher = stronger binding
# Conditions in all cases: glycan notation: IUPAC condensed, linker removed
# [1] = molecular target: Neu5Ac(a2-6)Gal(b1-4)GlcNAc(b1-3)Gal(b1-4)GlcNAc(b1-3)Gal(b1-4)GlcNAc(b1-2)Man(a1-3)[Neu5Ac(a2-6)Gal(b1-4)GlcNAc(b1-3)Gal(b1-4)GlcNAc(b1-3)Gal(b1-4)GlcNAc(b1-2)Man(a1-6)]GalNAc
# How it was run: (§1)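 Glycan array binding is given as a within-array Z-score, which can be read as non-binding when negative. The arrays, 3228 of them, came from the Consortium for Functional Glycomics database and were retained only where the protein sequence was available. Z-scores were averaged across arrays of the same protein sequence at different concentrations or buffers and across linkers.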
# [2] = molecular target: Neu5Ac(a2-6)Gal(b1-4)GlcNAc(b1-3)Gal(b1-4)GlcNAc(b1-3)GalNAc
# How it was run: as §1
# [3] = molecular target: Neu5Ac(a2-6)Gal(b1-4)GlcNAc(b1-3)Gal(b1-4)GlcNAc(b1-3)[Neu5Ac(a2-6)Gal(b1-4)GlcNAc(b1-3)Gal(b1-4)GlcNAc(b1-6)]GalNAc
# How it was run: as §1
# [4] = molecular target: Neu5Ac(a2-6)Gal(b1-4)GlcNAc(b1-3)Gal(b1-4)GlcNAc(b1-6)[Gal(b1-3)]GalNAc
# How it was run: as §1
# [5] = molecular target: Neu5Ac(a2-6)Gal(b1-4)GlcNAc(b1-3)Gal(b1-4)[Fuc(a1-3)]GlcNAc(b1-3)Gal(b1-4)[Fuc(a1-3)]GlcNAc
# How it was run: as §1
# [6] = molecular target: Neu5Ac(a2-6)Gal(b1-4)GlcNAc(b1-3)GalNAc
# How it was run: as §1
# [7] = molecular target: Neu5Ac(a2-6)Gal(b1-4)GlcNAc(b1-3)[Neu5Ac(a2-6)Gal(b1-4)GlcNAc(b1-6)]GalNAc
# How it was run: as §1
# [8] = molecular target: Neu5Ac(a2-6)Gal(b1-4)GlcNAc(b1-6)GalNAc
# How it was run: as §1
# [9] = molecular target: Neu5Ac(a2-6)Gal(b1-4)GlcNAc(b1-6)[Gal(b1-3)GlcNAc(b1-3)]Gal(b1-4)Glc
# How it was run: as §1
# [10] = molecular target: Neu5Ac(a2-6)Gal(b1-4)GlcNAc(b1-6)[Gal(b1-3)]GalNAc
# How it was run: as §1
# [11] = molecular target: Neu5Ac(a2-6)Gal(b1-4)GlcNAc6S
# How it was run: as §1
# Neu5Ac(a2-6)GalNAc = molecular target: Neu5Ac(a2-6)GalNAc
# How it was run: as §1
# [12] = molecular target: Neu5Ac(a2-6)GalNAc(b1-4)GlcNAc
# How it was run: as §1
# [13] = molecular target: Neu5Ac(a2-6)GalNAc(b1-4)GlcNAc6S
# How it was run: as §1
# [14] = molecular target: Neu5Ac(a2-6)GlcNAc(b1-4)GlcNAc
# How it was run: as §1
# [15] = molecular target: Neu5Ac(a2-6)GlcNAc(b1-4)GlcNAc(b1-4)GlcNAc
# How it was run: as §1
# Neu5Ac(a2-8)Neu5Ac = molecular target: Neu5Ac(a2-8)Neu5Ac
# How it was run: as §1
# [16] = molecular target: Neu5Ac(a2-8)Neu5Ac(a2-3)Gal(b1-3)GalNAc(b1-4)[Neu5Ac(a2-3)]Gal(b1-4)Glc
# How it was run: as §1
# [17] = molecular target: Neu5Ac(a2-8)Neu5Ac(a2-3)Gal(b1-3)GalNAc(b1-4)[Neu5Ac(a2-8)Neu5Ac(a2-3)]Gal(b1-4)Glc
# How it was run: as §1
# [18] = molecular target: Neu5Ac(a2-8)Neu5Ac(a2-3)Gal(b1-4)Glc
# How it was run: as §1
# [19] = molecular target: Neu5Ac(a2-8)Neu5Ac(a2-3)Gal(b1-4)GlcNAc
# How it was run: as §1
# [20] = molecular target: Neu5Ac(a2-8)Neu5Ac(a2-3)[Gal(b1-3)GalNAc(b1-4)]Gal(b1-4)Glc
# How it was run: as §1
# [21] = molecular target: Neu5Ac(a2-8)Neu5Ac(a2-3)[GalNAc(b1-4)]Gal(b1-4)Glc
# How it was run: as §1
# [22] = molecular target: Neu5Ac(a2-8)Neu5Ac(a2-8)Neu5Ac
# How it was run: as §1
# [23] = molecular target: Neu5Ac(a2-8)Neu5Ac(a2-8)Neu5Ac(a2-3)Gal(b1-4)Glc
# How it was run: as §1
# [24] = molecular target: Neu5Ac(a2-8)Neu5Ac(a2-8)Neu5Ac(a2-3)[Gal(b1-3)GalNAc(b1-4)]Gal(b1-4)Glc
# How it was run: as §1
# [25] = molecular target: Neu5Ac(a2-8)Neu5Ac(a2-8)Neu5Ac(a2-3)[GalNAc(b1-4)]Gal(b1-4)Glc
# How it was run: as §1
# [26] = molecular target: Neu5Ac(a2-8)Neu5Ac(a2-8)Neu5Ac(a2-8)Neu5Ac(a2-3)[GalNAc(b1-4)]Gal(b1-4)Glc
# How it was run: as §1
# [27] = molecular target: Neu5Ac(a2-8)Neu5Gc(a2-3)Gal(b1-4)GlcNAc
# How it was run: as §1
# [28] = molecular target: Neu5Ac(b2-6)Gal(b1-4)GlcNAc
# How it was run: as §1
# Neu5Ac(b2-6)GalNAc = molecular target: Neu5Ac(b2-6)GalNAc
# How it was run: as §1
# [29] = molecular target: Neu5Ac9Ac(a2-3)Gal(b1-3)GlcNAc
# How it was run: as §1
# [30] = molecular target: Neu5Ac9Ac(a2-3)Gal(b1-4)GlcNAc
# How it was run: as §1
# [31] = molecular target: Neu5Ac9Ac(a2-6)Gal(b1-4)GlcNAc
# How it was run: as §1
# [32] = molecular target: Neu5Gc(a2-3)Gal(b1-3)GlcNAc
# How it was run: as §1
# [33] = molecular target: Neu5Gc(a2-3)Gal(b1-3)[Fuc(a1-4)]GlcNAc
# How it was run: as §1
# Neu5Gc(a2-3)Gal(b1-4)Glc = molecular target: Neu5Gc(a2-3)Gal(b1-4)Glc
# How it was run: as §1
# [34] = molecular target: Neu5Gc(a2-3)Gal(b1-4)GlcNAc
# How it was run: as §1
# [35] = molecular target: Neu5Gc(a2-3)Gal(b1-4)GlcNAc(b1-3)Gal(b1-4)GlcNAc(b1-2)Man(a1-3)[Neu5Gc(a2-3)Gal(b1-4)GlcNAc(b1-3)Gal(b1-4)GlcNAc(b1-2)Man(a1-6)]Man(b1-4)GlcNAc(b1-4)GlcNAc
# How it was run: as §1
# [36] = molecular target: Neu5Gc(a2-3)Gal(b1-4)[Fuc(a1-3)]GlcNAc
# How it was run: as §1
# [37] = molecular target: Neu5Gc(a2-6)Gal(b1-4)GlcNAc
# How it was run: as §1
# Neu5Gc(a2-6)GalNAc = molecular target: Neu5Gc(a2-6)GalNAc
# How it was run: as §1
# [38] = molecular target: Neu5Gc(a2-8)Neu5Ac(a2-3)Gal(b1-4)GlcNAc
# How it was run: as §1
# [39] = molecular target: Neu5Gc(a2-8)Neu5Gc(a2-3)Gal(b1-4)GlcNAc
# How it was run: as §1
# [40] = molecular target: Neu5Gc(a2-8)Neu5Gc(a2-3)Gal(b1-4)GlcNAc(b1-3)Gal(b1-4)GlcNAc
# How it was run: as §1
# [41] = molecular target: Neu5Gc(a2-8)Neu5Gc(a2-6)Gal(b1-4)GlcNAc
# How it was run: as §1
# [42] = molecular target: Neu5Gc(b2-6)Gal(b1-4)GlcNAc
# How it was run: as §1
binder,measurement,setting,value
PX9961A-pdi-456-24-456 (Parabacteroides distasonis) (protein) KTSSTQLPTIDAISSVADLTNAVNGVYEQQATEVGSYGAEFTLLADLRSGDFQSISTVNHAGPMYRYQTGKNDEMVYSFYKLFYNSLARLNNVLAAAENLEGADVDILKGELYAMRALYHFDLARVFAKLPSTTDMNDLGIVLSTEVYPTDYIGTRATLQQTYDQILKDIETALPLLSKDKQTGHINYWGALAIRARAYLYLEKNKEALADCKEIIASSPYKLYTRDEYIGAWDKEGTNEAIFEILVTPNYNAQRNSIGYFTHASGYGECAATESFLEELAKHPGDIRTELFAKETDNGYDGTYPQKYKGRDGQIYVNNPKVVRLSEVYLIAAEAALKAGDTSAAAGYMNTLRKNRIENYTDVASITLDDILLERRLELFTEGHTAWDAWRNGKSVNNKFVGEVKPGDYRTIMAIPIGEITVSRGQLIQNPGY,glycan array binding signal (z-score),[1],0.269
same,glycan array binding signal (z-score),[2],-0.552
same,glycan array binding signal (z-score),[3],-0.346
same,glycan array binding signal (z-score),[4],-0.172
same,glycan array binding signal (z-score),[5],-0.091
same,glycan array binding signal (z-score),[6],0.125
same,glycan array binding signal (z-score),[7],-0.049
same,glycan array binding signal (z-score),[8],0.035
same,glycan array binding signal (z-score),[9],-0.26
same,glycan array binding signal (z-score),[10],-0.445
same,glycan array binding signal (z-score),[11],0.35
same,glycan array binding signal (z-score),Neu5Ac(a2-6)GalNAc,-0.274
same,glycan array binding signal (z-score),[12],-0.529
same,glycan array binding signal (z-score),[13],-0.348
same,glycan array binding signal (z-score),[14],-0.484
same,glycan array binding signal (z-score),[15],0.275
same,glycan array binding signal (z-score),Neu5Ac(a2-8)Neu5Ac,-0.131
same,glycan array binding signal (z-score),[16],-0.315
same,glycan array binding signal (z-score),[17],0.512
same,glycan array binding signal (z-score),[18],-0.672
same,glycan array binding signal (z-score),[19],-0.385
same,glycan array binding signal (z-score),[20],-0.231
same,glycan array binding signal (z-score),[21],0.053
same,glycan array binding signal (z-score),[22],-0.277
same,glycan array binding signal (z-score),[23],-0.325
same,glycan array binding signal (z-score),[24],0.291
same,glycan array binding signal (z-score),[25],-0.415
same,glycan array binding signal (z-score),[26],0.361
same,glycan array binding signal (z-score),[27],-0.545
same,glycan array binding signal (z-score),[28],-0.387
same,glycan array binding signal (z-score),Neu5Ac(b2-6)GalNAc,-0.233
same,glycan array binding signal (z-score),[29],-0.431
same,glycan array binding signal (z-score),[30],-0.069
same,glycan array binding signal (z-score),[31],0.088
same,glycan array binding signal (z-score),[32],-0.334
same,glycan array binding signal (z-score),[33],-0.042
same,glycan array binding signal (z-score),Neu5Gc(a2-3)Gal(b1-4)Glc,0.466
same,glycan array binding signal (z-score),[34],-0.47
same,glycan array binding signal (z-score),[35],-0.097
same,glycan array binding signal (z-score),[36],0.133
same,glycan array binding signal (z-score),[37],0.031
same,glycan array binding signal (z-score),Neu5Gc(a2-6)GalNAc,-0.263
same,glycan array binding signal (z-score),[38],-0.422
same,glycan array binding signal (z-score),[39],-0.3
same,glycan array binding signal (z-score),[40],-0.373
same,glycan array binding signal (z-score),[41],-0.464
same,glycan array binding signal (z-score),[42],0.275
